{
  "source": "the supplement of paper PMC8728848",
  "binders": {"B1": {"name": "Gal 4 (Homo sapiens), Q8K419 (protein)", "chain": "MAYVPAPGYQPTYNPTLPYKRPIPGGLSVGMSVYIQGMAKENMRRFHVNFAVGQDDGADVAFHFNPRFDGWDKVVFNTMQSGQWGKEEKKKSMPFQKGKHFELVFMVMPEHYKVVVNGNSFYEYGHRLPVQMVTHLQVDGDLELQSINFLGGQPAAAPYPGAMTIPAYPAGSPGYNPPQMNTLPVMTGPPVFNPRVPYVGALQGGLTVRRTIIIKGYVLPTARNFVINFKVGSSGDIALHLNPRIGDSVVRNSFMNGSWGAEERKVAYNPFGPGQFFDLSIRCGMDRFKVFANGQHLFDFSHRFQAFQMVDTLEINGDITLSYVQI"}},
  "assay_in_all_cases": "glycan array binding signal (z-score within array); higher = stronger binding",
  "conditions_in_all_cases": "glycan notation: IUPAC condensed, linker removed",
  "key": {"[1]": {"molecular_target": "Fuc(a1-2)Gal(b1-4)GlcNAc(b1-3)Gal(b1-4)GlcNAc(b1-3)Gal(b1-4)GlcNAc", "summary_of_the_method": "(§1)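 The binding signal is a Z-score computed within each array and averaged over linkers. Arrays of the same protein sequence at different concentrations or buffers were also averaged together. Data originate from 3228 arrays in the Consortium for Functional Glycomics database, kept only where the protein sequence was available.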"}, "[2]": {"molecular_target": "Fuc(a1-2)Gal(b1-4)GlcNAc(b1-3)GalNAc", "summary_of_the_method": "as §1"}, "[3]": {"molecular_target": "Fuc(a1-2)Gal(b1-4)GlcNAc(b1-3)[Fuc(a1-2)Gal(b1-4)GlcNAc(b1-6)]GalNAc", "summary_of_the_method": "as §1"}, "[4]": {"molecular_target": "Fuc(a1-2)Gal(b1-4)GlcNAc(b1-6)GalNAc", "summary_of_the_method": "as §1"}, "[5]": {"molecular_target": "Fuc(a1-2)Gal(b1-4)GlcNAc6S", "summary_of_the_method": "as §1"}, "[6]": {"molecular_target": "Fuc(a1-2)Gal(b1-4)[Fuc(a1-3)]GlcNAc", "summary_of_the_method": "as §1"}, "[7]": {"molecular_target": "Fuc(a1-2)Gal(b1-4)[Fuc(a1-3)]GlcNAc(b1-2)Man(a1-3)[Fuc(a1-2)Gal(b1-4)[Fuc(a1-3)]GlcNAc(b1-2)Man(a1-6)]Man(b1-4)GlcNAc(b1-4)GlcNAc", "summary_of_the_method": "as §1"}, "[8]": {"molecular_target": "Fuc(a1-2)Gal(b1-4)[Fuc(a1-3)]GlcNAc(b1-2)Man(a1-6)[Fuc(a1-2)Gal(b1-4)[Fuc(a1-3)]GlcNAc(b1-2)Man(a1-3)]Man(b1-4)GlcNAc(b1-4)[Fuc(a1-6)]GlcNAc", "summary_of_the_method": "as §1"}, "[9]": {"molecular_target": "Fuc(a1-2)Gal(b1-4)[Fuc(a1-3)]GlcNAc(b1-2)[Fuc(a1-2)Gal(b1-4)[Fuc(a1-3)]GlcNAc(b1-4)]Man(a1-3)[Fuc(a1-2)Gal(b1-4)[Fuc(a1-3)]GlcNAc(b1-2)Man(a1-6)]Man(b1-4)GlcNAc(b1-4)GlcNAc", "summary_of_the_method": "as §1"}, "[10]": {"molecular_target": "Fuc(a1-2)Gal(b1-4)[Fuc(a1-3)]GlcNAc(b1-3)Gal(b1-4)[Fuc(a1-3)]GlcNAc", "summary_of_the_method": "as §1"}, "[11]": {"molecular_target": "Fuc(a1-2)Gal(b1-4)[Fuc(a1-3)]GlcNAc(b1-3)Gal(b1-4)[Fuc(a1-3)]GlcNAc(b1-3)Gal(b1-4)[Fuc(a1-3)]GlcNAc", "summary_of_the_method": "as §1"}, "[12]": {"molecular_target": "Fuc(a1-2)Gal(b1-4)[Fuc(a1-3)]GlcNAc(b1-3)GalNAc", "summary_of_the_method": "as §1"}, "[13]": {"molecular_target": "Fuc(a1-2)Gal(b1-4)[Fuc(a1-3)]GlcNAc(b1-3)[Neu5Ac(a2-6)Gal(b1-4)GlcNAc(b1-6)]Gal(b1-4)Glc", "summary_of_the_method": "as §1"}, "[14]": {"molecular_target": "Fuc(a1-2)Gal6S(b1-3)GlcNAc", "summary_of_the_method": "as §1"}, "[15]": {"molecular_target": "Fuc(a1-2)Gal6S(b1-3)GlcNAc6S", "summary_of_the_method": "as §1"}, "Fuc(a1-2)Gal6S(b1-4)Glc": {"molecular_target": "Fuc(a1-2)Gal6S(b1-4)Glc", "summary_of_the_method": "as §1"}, "[16]": {"molecular_target": "Fuc(a1-2)Gal6S(b1-4)Glc6S", "summary_of_the_method": "as §1"}, "[17]": {"molecular_target": "Fuc(a1-2)Gal6S(b1-4)GlcNAc", "summary_of_the_method": "as §1"}, "Fuc(a1-2)[Gal(a1-3)]Gal": {"molecular_target": "Fuc(a1-2)[Gal(a1-3)]Gal", "summary_of_the_method": "as §1"}, "[18]": {"molecular_target": "Fuc(a1-2)[Gal(a1-3)]Gal(b1-3)GalNAc", "summary_of_the_method": "as §1"}, "[19]": {"molecular_target": "Fuc(a1-2)[Gal(a1-3)]Gal(b1-3)GlcNAc", "summary_of_the_method": "as §1"}, "[20]": {"molecular_target": "Fuc(a1-2)[Gal(a1-3)]Gal(b1-3)GlcNAc(b1-2)Man(a1-3)[Fuc(a1-2)[Gal(a1-3)]Gal(b1-3)GlcNAc(b1-2)Man(a1-6)]Man(b1-4)GlcNAc(b1-4)GlcNAc", "summary_of_the_method": "as §1"}, "[21]": {"molecular_target": "Fuc(a1-2)[Gal(a1-3)]Gal(b1-3)GlcNAc(b1-2)Man(a1-3)[Fuc(a1-2)[Gal(a1-3)]Gal(b1-3)GlcNAc(b1-2)Man(a1-6)]Man(b1-4)GlcNAc(b1-4)[Fuc(a1-6)]GlcNAc", "summary_of_the_method": "as §1"}, "[22]": {"molecular_target": "Fuc(a1-2)[Gal(a1-3)]Gal(b1-3)GlcNAc(b1-3)GalNAc", "summary_of_the_method": "as §1"}, "[23]": {"molecular_target": "Fuc(a1-2)[Gal(a1-3)]Gal(b1-4)Glc", "summary_of_the_method": "as §1"}, "[24]": {"molecular_target": "Fuc(a1-2)[Gal(a1-3)]Gal(b1-4)GlcNAc", "summary_of_the_method": "as §1"}, "[25]": {"molecular_target": "Fuc(a1-2)[Gal(a1-3)]Gal(b1-4)GlcNAc(b1-2)Man(a1-3)[Fuc(a1-2)[Gal(a1-3)]Gal(b1-4)GlcNAc(b1-2)Man(a1-6)]Man(b1-4)GlcNAc(b1-4)GlcNAc", "summary_of_the_method": "as §1"}, "[26]": {"molecular_target": "Fuc(a1-2)[Gal(a1-3)]Gal(b1-4)GlcNAc(b1-2)Man(a1-3)[Fuc(a1-2)[Gal(a1-3)]Gal(b1-4)GlcNAc(b1-2)Man(a1-6)]Man(b1-4)GlcNAc(b1-4)[Fuc(a1-6)]GlcNAc", "summary_of_the_method": "as §1"}, "[27]": {"molecular_target": "Fuc(a1-2)[Gal(a1-3)]Gal(b1-4)GlcNAc(b1-3)GalNAc", "summary_of_the_method": "as §1"}, "[28]": {"molecular_target": "Fuc(a1-2)[Gal(a1-3)]Gal(b1-4)GlcNAc(b1-6)GalNAc", "summary_of_the_method": "as §1"}, "[29]": {"molecular_target": "Fuc(a1-2)[Gal(a1-3)]Gal(b1-4)[Fuc(a1-3)]Glc", "summary_of_the_method": "as §1"}, "[30]": {"molecular_target": "Fuc(a1-2)[Gal(a1-3)]Gal(b1-4)[Fuc(a1-3)]GlcNAc", "summary_of_the_method": "as §1"}, "[31]": {"molecular_target": "Fuc(a1-2)[Gal(a1-3)]Gal(b1-4)[Fuc(a1-3)]GlcNAc(b1-3)GalNAc", "summary_of_the_method": "as §1"}, "[32]": {"molecular_target": "Fuc(a1-2)[Gal(a1-4)]Gal(b1-4)GlcNAc", "summary_of_the_method": "as §1"}, "[33]": {"molecular_target": "Fuc(a1-2)[GalNAc(a1-3)]Gal", "summary_of_the_method": "as §1"}, "[34]": {"molecular_target": "Fuc(a1-2)[GalNAc(a1-3)]Gal(b1-3)GalNAc(a1-3)[Fuc(a1-2)]Gal(b1-4)GlcNAc", "summary_of_the_method": "as §1"}, "[35]": {"molecular_target": "Fuc(a1-2)[GalNAc(a1-3)]Gal(b1-3)GlcNAc", "summary_of_the_method": "as §1"}},
  "note": "The other results are listed elsewhere or left out.",
  "data": [
    {"binder": "B1", "values": [
      {"measurement": "glycan array binding signal (z-score)", "setting": "[1]", "value": -0.084},
      {"measurement": "glycan array binding signal (z-score)", "setting": "[2]", "value": -0.199},
      {"measurement": "glycan array binding signal (z-score)", "setting": "[3]", "value": -0.189},
      {"measurement": "glycan array binding signal (z-score)", "setting": "[4]", "value": -0.185},
      {"measurement": "glycan array binding signal (z-score)", "setting": "[5]", "value": -0.086},
      {"measurement": "glycan array binding signal (z-score)", "setting": "[6]", "value": -0.201},
      {"measurement": "glycan array binding signal (z-score)", "setting": "[7]", "value": -0.14},
      {"measurement": "glycan array binding signal (z-score)", "setting": "[8]", "value": -0.207},
      {"measurement": "glycan array binding signal (z-score)", "setting": "[9]", "value": -0.149},
      {"measurement": "glycan array binding signal (z-score)", "setting": "[10]", "value": -0.203},
      {"measurement": "glycan array binding signal (z-score)", "setting": "[11]", "value": -0.202},
      {"measurement": "glycan array binding signal (z-score)", "setting": "[12]", "value": -0.182},
      {"measurement": "glycan array binding signal (z-score)", "setting": "[13]", "value": -0.21},
      {"measurement": "glycan array binding signal (z-score)", "setting": "[14]", "value": -0.214},
      {"measurement": "glycan array binding signal (z-score)", "setting": "[15]", "value": -0.183},
      {"measurement": "glycan array binding signal (z-score)", "setting": "Fuc(a1-2)Gal6S(b1-4)Glc", "value": -0.196},
      {"measurement": "glycan array binding signal (z-score)", "setting": "[16]", "value": -0.201},
      {"measurement": "glycan array binding signal (z-score)", "setting": "[17]", "value": -0.198},
      {"measurement": "glycan array binding signal (z-score)", "setting": "Fuc(a1-2)[Gal(a1-3)]Gal", "value": -0.201},
      {"measurement": "glycan array binding signal (z-score)", "setting": "[18]", "value": 0.833},
      {"measurement": "glycan array binding signal (z-score)", "setting": "[19]", "value": 2.91},
      {"measurement": "glycan array binding signal (z-score)", "setting": "[20]", "value": 1.26},
      {"measurement": "glycan array binding signal (z-score)", "setting": "[21]", "value": 0.436},
      {"measurement": "glycan array binding signal (z-score)", "setting": "[22]", "value": 0.753},
      {"measurement": "glycan array binding signal (z-score)", "setting": "[23]", "value": 3.5},
      {"measurement": "glycan array binding signal (z-score)", "setting": "[24]", "value": 1.43},
      {"measurement": "glycan array binding signal (z-score)", "setting": "[25]", "value": 0.405},
      {"measurement": "glycan array binding signal (z-score)", "setting": "[26]", "value": 0.074},
      {"measurement": "glycan array binding signal (z-score)", "setting": "[27]", "value": -0.006},
      {"measurement": "glycan array binding signal (z-score)", "setting": "[28]", "value": -0.21},
      {"measurement": "glycan array binding signal (z-score)", "setting": "[29]", "value": -0.108},
      {"measurement": "glycan array binding signal (z-score)", "setting": "[30]", "value": -0.199},
      {"measurement": "glycan array binding signal (z-score)", "setting": "[31]", "value": -0.195},
      {"measurement": "glycan array binding signal (z-score)", "setting": "[32]", "value": -0.197},
      {"measurement": "glycan array binding signal (z-score)", "setting": "[33]", "value": -0.2},
      {"measurement": "glycan array binding signal (z-score)", "setting": "[34]", "value": -0.024},
      {"measurement": "glycan array binding signal (z-score)", "setting": "[35]", "value": 4.09}
    ]}
  ]
}
